Test results as given in article PMC4336329 (PLoS ONE, 2015).
Hit rate of the full screen: of about 310,000 compounds, about 14,000 (4.5%) showed an effect of 50% or more. Effects have a minus sign here. This is one part of the list.

What follows are compounds tested against human ether-à-go-go-related gene (hERG) potassium channel (human, UniProt Q12809) (assay: primary screen, population patch clamp on CHO cells stably expressing hERG).
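Note: peak tail current of the secondary pulse compared with the same well before compound.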

human ether-à-go-go-related gene (hERG) potassium channel, sequence (Q12809 whole entry, looked up): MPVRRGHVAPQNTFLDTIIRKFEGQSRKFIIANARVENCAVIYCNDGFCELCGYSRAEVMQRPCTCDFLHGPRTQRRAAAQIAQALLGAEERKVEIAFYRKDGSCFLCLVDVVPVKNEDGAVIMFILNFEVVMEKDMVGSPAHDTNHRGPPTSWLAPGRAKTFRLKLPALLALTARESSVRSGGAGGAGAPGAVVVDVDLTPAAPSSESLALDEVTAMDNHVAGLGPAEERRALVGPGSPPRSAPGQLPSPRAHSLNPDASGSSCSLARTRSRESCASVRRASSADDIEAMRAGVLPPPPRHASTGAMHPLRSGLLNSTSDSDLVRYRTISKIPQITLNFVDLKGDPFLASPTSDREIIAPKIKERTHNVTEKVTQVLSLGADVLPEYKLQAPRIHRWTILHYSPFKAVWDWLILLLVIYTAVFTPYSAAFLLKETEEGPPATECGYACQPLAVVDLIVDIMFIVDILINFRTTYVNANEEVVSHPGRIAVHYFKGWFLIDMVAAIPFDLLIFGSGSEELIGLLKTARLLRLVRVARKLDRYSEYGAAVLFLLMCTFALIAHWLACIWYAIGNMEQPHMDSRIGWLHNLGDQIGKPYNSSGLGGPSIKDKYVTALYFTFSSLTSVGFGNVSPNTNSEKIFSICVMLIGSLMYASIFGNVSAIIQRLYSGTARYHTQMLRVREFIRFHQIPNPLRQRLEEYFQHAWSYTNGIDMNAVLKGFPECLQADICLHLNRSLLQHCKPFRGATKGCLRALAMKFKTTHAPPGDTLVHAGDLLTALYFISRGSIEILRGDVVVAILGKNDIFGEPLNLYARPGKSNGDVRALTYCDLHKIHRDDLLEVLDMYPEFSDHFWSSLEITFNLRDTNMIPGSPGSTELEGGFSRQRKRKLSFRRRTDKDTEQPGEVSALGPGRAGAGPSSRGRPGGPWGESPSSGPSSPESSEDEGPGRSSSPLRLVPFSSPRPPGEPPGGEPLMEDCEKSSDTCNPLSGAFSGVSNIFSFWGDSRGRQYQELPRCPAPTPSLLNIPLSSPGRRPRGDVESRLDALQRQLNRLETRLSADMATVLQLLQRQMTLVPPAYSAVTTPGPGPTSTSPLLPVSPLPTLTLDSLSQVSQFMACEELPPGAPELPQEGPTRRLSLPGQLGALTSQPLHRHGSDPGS

SMILES | hERG current change (%, negative = inhibition) at 10uM
COc1cc2[nH]c(=O)n(CCCCCC(=O)N3CCN(c4ccccc4)CC3)c(=O)c2cc1OC | -18.6%
CCOC(=O)N1CCC(NS(=O)(=O)c2ccc3c(c2)C(C)(C)C(=O)N3C)CC1 | 11.3%
COCC(C)(C)COS(N)(=O)=O | 3.52%
C=Cc1ccc2c(c1)N(C)C(=C)S2.I | 19.7%
O=C(Cn1cc([N+](=O)[O-])cn1)Nc1ccc(Cn2cc(Br)cn2)cc1 | -36.9%
C=C(C)c1cccc(C(C)(C)NC(=O)N2CCOCC2)c1 | -1.87%
O=C(N/N=C/c1ccccn1)c1ccc(NC(=O)c2cccc([N+](=O)[O-])c2)cc1 | 11.8%
COc1ccccc1N1CCN(C(=O)c2ccc(NC3=NC4CS(=O)(=O)CC4S3)cc2)CC1 (stereo not shown) | 1.39%
COCCCn1c(=O)c2sccc2n2c(CCCC(=O)N(C)Cc3ccco3)nnc12 | -22.8%
COc1cc(-c2nc(-c3ccccc3)c(-c3cccs3)[nH]2)cc(OC)c1O | -7.38%
CS(=O)(=O)O.Cc1c(C(=O)c2cccc3ccccc23)c2cccc3c2n1[C@H](CN1CCOCC1)CO3 | -12.8%
CC(C)c1ccc(NC(=O)c2ccccc2NC(=O)C2CCCCC2C(=O)O)cc1 (stereo not shown) | 11.5%
Cc1ccc(-c2cc(C(=O)Nc3ccc(S(=O)(=O)Nc4onc(C)c4C)cc3)[nH]n2)c(O)c1 | -5.74%
COc1ccc(S(=O)(=O)N/N=C\c2ccc([N+](=O)[O-])o2)c(OC)c1 | 9.89%
CCC(=O)Nc1ccc(NC(=O)CSc2nnc(-c3ccco3)n2C)cc1 | 10.6%
Cc1nc(NC(=O)C2CC2)sc1C(=O)NC1CCCCC1 | 16.8%
NC(=O)C1C(c2ccccc2)=C1c1ccccc1 | 21.6%
Cc1ccc(-c2nc(NCc3ccco3)n(S(C)(=O)=O)n2)cc1 | 12.9%
CCc1cccc2c(C(=O)CN3C(=O)NC4(CCCCCC4)C3=O)c[nH]c12 | 1.99%
O=C1C2C3CCC(O3)C2C(=O)N1CCO (stereo not shown) | -1.17%
CCN1CCN(CC(c2ccccc2)c2ccccc2)CC1 | -44.7%
CS(=O)(=O)Nc1ccc(C(=O)Nc2ccccc2-c2ccccc2)cc1 | -65.9%

SMILES | hERG current change (%, negative = inhibition) at 10uM
COc1cc(C)nc(N(Cc2ccccc2)S(=O)(=O)c2ccccc2)n1 | 0.102%
Cc1ccc(C(=O)C[n+]2cccc3ccccc32)cc1.[Br-] | -9.35%
CN=C1SC(CC(=O)Nc2cccc(Cl)c2Cl)C(=O)N1C (stereo not shown) | -7.05%
CCOc1ccc(-c2nnn(CC(=O)Nc3cc(OC)ccc3OC)n2)cc1OCC | 2.93%
O=C(Nc1cccc(C(=O)O)c1)/C(=C/c1cccc([N+](=O)[O-])c1)NC(=O)c1cccc(Br)c1 | 19.2%
CCOc1ccc(Nc2oc(-c3cccs3)nc2C#N)cc1 | 14.5%
CCOC(=O)CCNC(=O)N1CCCC(CCC(=O)N(C)CCc2ccccn2)C1 (stereo not shown) | -52.3%
CCOc1ncccc1C(=O)Nc1cccc(-c2nnc3n2CCCCC3)c1 | -19.6%
COc1cccc(CNn2cnnc2)c1O | 12.8%
CC1=C(C(N)=O)C(c2ccc(Cl)cc2)n2nc(CCCO)nc2N1 (stereo not shown) | 16.9%
O=c1[nH]c2ccccc2cc1CN(CC1CCCO1)S(=O)(=O)c1ccc(Cl)cc1 (stereo not shown) | -75.1%
NC(=O)c1ccc(NC(=O)COC(=O)/C=C/c2cccs2)cc1 | 14.6%
CC(C)Cc1ccc(CN2CCCC(NC(=O)CCN3CCCCC3=O)C2)cc1 (stereo not shown) | -45.3%
Cc1c(NC(=O)C(C)OC(=O)c2nc(Cl)ccc2Cl)c(=O)n(-c2ccccc2)n1C (stereo not shown) | 12.5%
O=C(O)C1CCCCC1C(=O)Nc1ccccc1C(=O)N1CCN(c2ccc(F)cc2)CC1 (stereo not shown) | 2.56%
Cc1cc(NC(=O)Nc2ccc(F)cc2)no1 | -8.3%
CC(=O)c1cccc(CN2CCC(n3nccc3NC(=O)CCOc3ccccc3)CC2)c1 | -3.2%
Cc1c(OC(=O)N(C)C)ccc2c1O/C(=C\c1ccco1)C2=O | 12%
CCOc1c2ccc(C(=O)NCc3cc(C(F)(F)F)cc(C(F)(F)F)c3)cc2nn1CCOC | -7.2%
COCc1cc(C)n(CC(=O)Nc2ccc(N3CCOCC3)cc2)c(=O)c1C#N | 10.5%
Cc1ccc(CNC(=O)c2ccccc2N(C)S(C)(=O)=O)cc1 | -7.38%
CC1CCCC(C)N1C(=O)CSc1nnnn1Cc1ccccc1 (stereo not shown) | -3.54%

SMILES | hERG current change (%, negative = inhibition) at 10uM
CCN1CCN(C(=O)C2CCN(S(=O)(=O)N3CCC4(CC3)OCCO4)CC2)CC1 | 17.6%
COC(=O)[C@H](CCSC)NC(=O)NCc1ccccc1F | -3.01%
CC(Oc1ccc(-c2ccccc2)c(F)c1)c1ccn(S(=O)(=O)c2cccc3ccccc23)n1 (stereo not shown) | -3.2%
CN(Cc1ccccc1)C(=O)CCS(=O)(=O)c1cc2c(cc1Cl)NC(=O)CO2 | -38.9%
Cc1cccc2c1cnn2C(=O)Nc1ccccc1Cl | 17.9%
COc1ccc(-c2nnc3sc(C4CCCCC4)nn23)cc1OC | -51.1%
Cc1cc(C)n2nc(C(=O)OCC(=O)N(C)C3CCS(=O)(=O)C3)nc2n1 (stereo not shown) | 7%
COc1ccc(S(=O)(=O)N2CCN(C3CCCCCCC3)CC2)cc1 | -15.1%
Cc1ccccc1OCC(=O)OCC(=O)NC1CC1 | 14%
CCOc1cc(NC(=S)NCCCN2CCOCC2)c(OCC)cc1NC(=O)c1ccc(C)cc1 | -13.3%
COc1cccc(OC)c1C(=O)Nc1ccc(N2CCCC2)cc1 | 7.52%
O=C(CCC(F)(F)F)N1CCC(CO)(CCc2ccccc2)CC1 | -12%
CN(C)CC(C)(C)CNC(=O)C1CCN(Cc2ccccc2O)CC1 | 11.2%
CCOc1ccc(CNC(=O)CCc2cn(C)c3ccccc23)cc1 | 9.59%
COc1ccccc1/C=C/C=N/n1c(-c2n[nH]c3c2CCC3)n[nH]c1=S | 18.8%
COc1cc(NC(=O)c2ccccc2)c(OC)cc1NC(=O)Cc1ccc(C)cc1 | 14.6%
CCOc1ccc(C2NC(=O)C(C#N)=C(S)N2c2ccc(C)cc2)cc1OC (stereo not shown) | 12.1%
COc1ccc(C2(CNC(=O)c3cccs3)CCOCC2)cc1 | 7.16%
CCOc1ccc(NC2=NC(C)(C)N=C(N)N2)cc1 | 7.83%
CC(C)[C@H](NC(=O)c1ccccc1)C(=O)OCC(=O)N1CCN(C(=O)c2ccco2)CC1 | 4.62%
CCN(C(=O)c1nn(-c2ccc(OC)cc2)c(=O)c2c1c1ccccc1n2C)c1ccc(OC)cc1 | 18.3%
COc1ccc(/C=C/C(=O)NC2=NCCS2)cc1OC | 3.96%

SMILES | hERG current change (%, negative = inhibition) at 10uM
CC(NC(=O)C(c1ccccc1)c1ccccc1)C(=O)O (stereo not shown) | -6.09%
CCCN(CCC)S(=O)(=O)c1ccc(C(=O)Nc2nnc(COC)o2)cc1 | -1.57%
Oc1ccc2ccccc2c1N=Nc1nccs1 | 21%
OCCCc1nc2n(n1)C(c1ccccc1Cl)C=C(c1cccs1)N2 (stereo not shown) | -5.71%
COc1ccc(C(=O)N2CCN=C2SCc2cccnc2)cc1OC | -2.85%
Cc1ccc(C)c(NC(=O)CN(C)C(=O)Cn2c(=O)oc3ccccc32)c1 | 5.25%
CCOc1ccc(/C=N/n2cnnc2)cc1 | 10.9%
CCCc1c(C(=O)O)cnn1-c1ccc(Cl)cc1 | 27.9%
O=C([O-])c1cc(-c2ccco2)nc2ccc(Br)cc12.[K+] | 3.31%
CS(=O)(=O)N(CC(=O)N1CCc2ccccc2C1)Cc1ccccc1 | -12.9%
Cc1ccc(C(=O)c2nccn2C)cc1C | 23.6%
O=C(Nc1cc(S(=O)(=O)N2CCOCC2)ccc1Oc1ccc(F)cc1)C1=COCCO1 | -69.8%
O=C(CCCCCn1c(=O)[nH]c2ccccc2c1=O)N1CCN(Cc2ccc3c(c2)OCO3)CC1 | -71.7%
COc1ccc(NC(=O)c2ccc3c(c2)OCCO3)cc1OC | 9.47%
COc1ccc(Br)cc1/C=C/C(=O)c1ccc(NC(C)=O)cc1 | 6.61%
COc1c(C)cc(C(=O)C2CCCN(C(=O)c3ccc4[nH]ccc4c3)C2)cc1C (stereo not shown) | 22.7%
CCOc1ccc(N2C(=O)C3C4C=CC([C@H]5CC45)[C@@H]3C2=O)cc1 (stereo partly shown) | 12.6%
Cc1c([N+](=O)[O-])c(C(=O)Sc2ccc(Br)cc2)nn1C | 17.1%
CCN(CC)C(=O)c1[nH]cnc1C(=O)N[C@H](C)c1ccccc1 | 14.9%
CC1CN(C2CCN(S(=O)(=O)c3ccc(F)cc3)CC2)CC(C)O1.O=C(O)C(=O)O (stereo not shown) | -5.34%
C=CCN(CC=C)S(=O)(=O)c1ccc(NC(=S)NC(=O)C2CC2)cc1 | -3.58%
CCN(CC)CC(=O)NC12CC3CC(CC(C3)C1)C2.Cl | 3.52%
